From PubChem BioAssay AID1508623 (National Center for Advancing Translational Sciences (NCATS), 2021) come the findings set out here.

The structures appear in SMILES notation. Screen size: about 48,000 compounds; about 450 (0.94%) were called active. Not shown: some 19% with an inconclusive outcome. The call rests on the fitted dose curve; in most records, active means well fitted inhibition curve with a large enough effect; inconclusive means small, poorly fitted or top-dose-only effect; inactive means no such curve, though single readings can be large or run the other way. This is one part of the list.

This assay is described as follows: Primary qHTS for Identification of Small Molecule Inhibitors of Huntingtin Promoter Activity. Further: nearly all actives have a fitted effect of over 50% in size. The following applies: HEK293 HTT promoter firefly luciferase reporter (activity 0% = vehicle and -100% = no light), 24 h; series mostly up to 57.5 µM; activity change, negative = inhibition: at the top concentration. Put shortly: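 Luminescence was read after Dual-Glo reagent and a 10 min room-temperature incubation. Values were normalized to vehicle (0% activity) and zero RLU (-100% activity). Reporter HEK293 cells had been exposed to compounds (up to 57.5 uM final) for 24 h.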
For orientation: In qHTS, concentration-response curves come from the screen itself.
As to `COc1ccccc1CCNC(=O)CCn1c(=O)c2cccn2c2ccc(F)cc21`, the “activity change, negative = inhibition” value is inactive: -7.18%. For the compound `Cc1cc(C)cc(NC(=O)CSCn2nnc3c(=O)[nH]c(Cc4ccc(F)cc4)nc32)c1`, the “activity change, negative = inhibition” value is inactive: -22.9%. As for `Cc1noc(/C=C/c2ccco2)c1S(=O)(=O)N1CCC(C(=O)Nc2ccc(F)cc2F)CC1`, the “activity change, negative = inhibition” value is inactive: -17.6%. For the compound `CCCCN(Cc1ccccc1)C(=O)CN(C)S(=O)(=O)c1ccc2c(c1)c(=O)n(C)c(=O)n2C`, the “activity change, negative = inhibition” value is inactive: -14.6%. In the case of `CCOC(=O)c1cccc(NC(=O)Cn2c(=O)nc(-c3ccccc3)c3ccccc32)c1`, the “activity change, negative = inhibition” value was inactive: -10.1%. On to `O=C(Nc1cc(C(F)(F)F)ccc1Cl)c1cc(S(=O)(=O)NCc2ccccc2)ccc1F`, for which the “activity change, negative = inhibition” value was inactive: -33%. Regarding `Cc1cccc(OCc2ccc(-c3nc(C#N)c(N4CCC(C(N)=O)CC4)o3)o2)c1`, the “activity change, negative = inhibition” value was inactive: -6.5%. For `CCc1cc2c(cc3c(=O)n(CCCC(=O)NCc4ccccc4Cl)nc(CC)n32)s1`, the “activity change, negative = inhibition” value was inactive: 5.69%.

As to `COCCCNC(=O)CC(c1cc(OC)c(OC)c(OC)c1)N1Cc2ccccc2C1=O` (stereo unspecified), the “activity change, negative = inhibition” value was inactive: -3.35%. Turning to `COc1ccc(NC(=O)C(Cc2ccccc2)NS(=O)(=O)c2ccc(Br)s2)cc1OC` (stereo unspecified), the “activity change, negative = inhibition” value was inactive: 9.87%.

For the compound `CCc1ccc(CNC(=O)c2nn(-c3ccc(C)c(C)c3)nc2CO)cc1`, the “activity change, negative = inhibition” value was inactive: -3.82%.

For `CCC(C)NC(=O)Cn1ncc2c(C)n(Cc3ccc(F)cc3)c(C)c2c1=O` (stereo unspecified), the “activity change, negative = inhibition” value was inactive: -4.65%. Under `Cc1ccc2c(=O)cc(C(=O)Nc3sc4c(c3C(=O)NCc3ccco3)CCCC4)oc2c1C` stands inactive: -8.02%. In the case of `COC(=O)c1ccc(Cn2c(=O)cc(C)c3c(C)nn(C)c32)cc1`, the “activity change, negative = inhibition” value is inactive: 0%. In the case of `Cc1cc(=O)[nH]c2nnc(SCC(=O)Nc3cc(C(F)(F)F)ccc3Cl)n12`, the “activity change, negative = inhibition” value was inactive: -15.2%.

Consider `CC(=O)CSc1nc(-c2ccccc2)[nH]c1S(=O)(=O)c1ccc(C)cc1`, for which the “activity change, negative = inhibition” value was inactive: -16.9%. With `CCn1cc(C(=O)N2CCN(c3ccccc3)CC2)c(=O)c2cc(S(=O)(=O)N(C)C3CCCCC3)ccc21`, the “activity change, negative = inhibition” value was inactive: -6.76%. In the case of `CN(C)c1ccc(C(CNC(=O)COc2ccccc2)N2CCOCC2)cc1` (stereo unspecified), the “activity change, negative = inhibition” value is inactive: -0.746%. Under `Cc1cnc(NC(=O)C2=C(O)c3ccccc3S(=O)(=O)N2C)s1` stands “inactive”; under `O=C(CN1C(=O)CCSc2ccc(S(=O)(=O)N3CCCC3)cc21)Nc1cccc(Cl)c1`, inactive: -23.9%. For the compound `CCN(CC)S(=O)(=O)c1ccc2c(c1)N(CC(=O)NCc1ccccc1)C(=O)CS2`, the “activity change, negative = inhibition” value was inactive: -17.4%. For the compound `Cn1ncc2c(NCc3cccc(Cl)c3)ncnc21`, the “activity change, negative = inhibition” value was inactive: -27.2%. As for `COc1cc(Cl)c(C)cc1NC(=O)CSc1cc(=O)n(C)c2cc(Cl)ccc12`, the “activity change, negative = inhibition” value was inactive: -6.48%.

Turning to `CCOc1ccc(NC(=O)Nc2c(C)n(C)n(-c3ccccc3)c2=O)cc1`, the “activity change, negative = inhibition” value is inactive: 13.8%. Under `Cc1ccc(-c2noc(CCC(=O)Nc3ccc(F)cc3Cl)n2)cc1` stands inactive: 0.448%; under `Cc1c(Cl)cccc1NC(=O)N1CCN(Cc2cc(=O)n3nc(-c4ccccc4F)sc3n2)CC1`, inactive: -14.5%. Regarding `Cc1nn(C)c2c1c(-c1ccccc1)cc(=O)n2Cc1ccccc1F`, the “activity change, negative = inhibition” value is inactive: -1.4%. For the compound `COc1ccc(NC(=O)c2cccc(N3CCCS3(=O)=O)c2)cc1`, the “activity change, negative = inhibition” value is inactive: 33.2%. As to `NC(=O)CSc1ncc2c(n1)-c1ccccc1N(Cc1ccccc1)S2(=O)=O`, the “activity change, negative = inhibition” value is inactive: -7.19%.

Regarding `Cc1cc(C)c2c(=O)cc(C(=O)NCCc3ccc(S(N)(=O)=O)cc3)oc2c1`, the “activity change, negative = inhibition” value was inactive: -7.76%. For `COc1cccc(CNC(=O)Cn2c(=O)c3cccn3c3ccc(F)cc32)c1OC`, the “activity change, negative = inhibition” value was inactive: -1.11%. `Cc1cccc(NC(=O)CSc2nnc(-c3cccs3)o2)c1`: the “activity change, negative = inhibition” value is inactive: 89.3%. Under `Cc1cccc(NC(=O)C(c2ccccc2)N2Cc3ccccc3C2=O)c1C` (stereo unspecified) stands inactive: -14.4%. For `Cc1noc2ncnc(Nc3ccc(F)cc3)c12`, the “activity change, negative = inhibition” value is inactive: -18.4%. As for `COC(=O)c1sccc1S(=O)(=O)N(CC(=O)Nc1ccc(C)cc1)c1ccccc1`, the “activity change, negative = inhibition” value is inactive: 3.82%. As for `Cc1cc(F)ccc1NC(=O)C1CCCN(c2nnc(-n3c(C)ccc3C)s2)C1` (stereo unspecified), the “activity change, negative = inhibition” value was inactive: -29.3%. For `Cc1cc(C)cc(N2C(=O)CS(=O)(=O)C23C(=O)N(Cc2ccc(F)cc2)c2ccc(C)cc23)c1` (stereo unspecified), the “activity change, negative = inhibition” value was inactive: -9.93%.

Take `COc1ccc(NC(=O)Cn2c(=O)nc(-c3ccccc3)c3ccccc32)cc1OC`: the “activity change, negative = inhibition” value was inactive: 7.93%. Under `O=C(O)CCCc1ccccc1` stands inactive: 10.5%. Consider `Cn1ncc(C(=O)N2CCN(c3ccccc3)CC2)c1C1CCN(C(=O)OC(C)(C)C)CC1`, for which the “activity change, negative = inhibition” value was inactive: 4.61%. Under `Cc1ccc(CCNC(=O)NCc2noc3ccc(C)cc23)cc1` stands inactive: -16.3%; under `CCOc1ccc(-c2cc3nc(C4CCN(C(=O)OC(C)(C)C)CC4)c(C(=O)Nc4ccc(C(=O)OC)cc4)cn3n2)cc1`, inactive: -8.96%; under `Cc1cc(C)n2nc(CNC(=O)c3cccc(Cl)c3)nc2n1`, inactive: 3.89%. On to `Cc1ccc(NC(=O)COc2ccc3oc4c(c3c2)CCCC4)c(C)c1`, for which the “activity change, negative = inhibition” value is inactive: -4.49%. For `COc1ccccc1N1CCN(C(=O)C2CCN(S(=O)(=O)c3cccc4nonc34)CC2)CC1`, the “activity change, negative = inhibition” value is inactive: -2.12%. Consider `Nc1ncc(S(=O)(=O)NCc2ccccc2F)cn1`, for which the “activity change, negative = inhibition” value was inactive: 3.72%.
